PubChem BioAssay (NCATS)
Where “and” joins values, the source holds several entries; their conditions need not be identical. Identical values can stand only once. The inconclusive results got no clear call from the source; some entries with a clear call stand among them for comparison. Where the call is inconclusive, the potency comes from a doubtful curve fit. Calls of active or inactive are those of the source. Calls come from the whole dose curve; as a rule, active = well fitted curve in the direction sought with a large enough effect; inconclusive = small, poorly fitted or top-dose-only effect, or another doubt; inactive = no such curve, though single readings can be large; an effect the other way counts as inactive or inconclusive.

biological target: Calcium and integrin-binding protein 1 (Homo sapiens) (UniProt Q99828); assay: Primary qHTS for Identification of Calcium Integrin Binding Protein 1 (CIB1) Competitor (AID 1508620); conditions: CIB1-GST / FITC-alphaIIb peptide fluorescence polarization; series mostly up to 114 µM; activity change, negative = inhibition: at the top concentration
In short: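 Fluorescence polarization competition: CIB1-GST (1 uM final) preincubated with compound 15 min at room temperature, then FITC-labeled alphaIIb peptide (100 nM final) added for another 15 min. Polarization read at Ex 480/Em 540.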
Potency is the fitted concentration of half-maximal effect; tags give direction and shape of the fitted curve.

Chain of UniProt Q99828 (Q99828 whole entry, looked up): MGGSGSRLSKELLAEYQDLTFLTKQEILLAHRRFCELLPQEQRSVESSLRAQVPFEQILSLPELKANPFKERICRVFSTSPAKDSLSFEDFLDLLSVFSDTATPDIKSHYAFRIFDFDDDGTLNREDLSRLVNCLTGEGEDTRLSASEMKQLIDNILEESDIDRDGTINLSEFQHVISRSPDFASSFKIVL

| SMILES | Potency |
| --- | --- |
| CC(=O)[C@]1(O)Cc2c(O)c3c(c(O)c2[C@@H](O[C@H]2C[C@H](N)[C@@H](O)[C@H](C)O2)C1)C(=O)c1ccccc1C3=O | active: 24.1 µM |
| COc1ccc(NS(=O)(=O)c2ccc(N)cc2)nn1 | inconclusive: 39.8 µM [inhibitor, single point] |
| CO[C@@]12[C@H](COC(N)=O)C3=C(C(=O)C(C)=C(N)C3=O)N1C[C@@H]1N[C@@H]12 | inconclusive: 25.1 µM [inhibitor, full curve] |

system: not listed separately; assay: Confirmatory qHTS for small molecule stabilizers of the endoplasmic reticulum resident proteome: Secreted ER Calcium Modulated Protein (SERCaMP) assay (AID 1508628); conditions: SERCaMP secreted luciferase ER calcium/proteostasis reporter; series mostly up to 76.3 µM; activity change, negative = decrease: at the top concentration; note: nearly all actives have a fitted effect of over 40% in size; for activity change, negative = decrease: % is set by controls: 0 for no effect and ±100 for the full control effect
In short: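 Reporter secretion upon ER calcium depletion (100 nM thapsigargin, 4 h, 37C) is measured as medium luminescence with coelenterazine, after 16 h compound pretreatment of SH-SY5Y-GLuc-SERCaMP cells; primary at three concentrations up to 38.3 uM, follow-up at 11 (up to 76.6 uM).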

| SMILES | Potency | activity change, negative = decrease |
| --- | --- | --- |
| CCN(CC)CCCN(c1ccccc1)C1Cc2ccccc2C1 | inconclusive: 20 µM [inhibitor, full curve] and active: 39.8 µM | – |
| Cc1cc2nc3c(=O)[nH]c(=O)nc-3n(C[C@H](O)[C@H](O)[C@H](O)CO)c2cc1C | – | inactive: -11.8% [at 38.8 µM] |
| O=[N+]([O-])c1ccc(O)c2ncccc12 | inconclusive: 3.55 µM [inhibitor, partial curve, poor fit] | – |
| CC(C)(Sc1cc(C(C)(C)C)c(O)c(C(C)(C)C)c1)Sc1cc(C(C)(C)C)c(O)c(C(C)(C)C)c1 | – | inactive: 20.8% |

system: not listed separately; assay: Cell Viability qHTS for small molecule stabilizers of the endoplasmic reticulum resident proteome (AID 1508629); conditions: cell viability counter-screen, 100 nM thapsigargin for final 4 h;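 note: compound exposure about 46 h in total before the viability read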;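 for max response: human SH-SY5Y neuroblastoma cells carrying the GLuc-SERCaMP reporter; % is set by controls: 0 for no effect and ±100 for the full control effect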

| SMILES | Potency | max response |
| --- | --- | --- |
| CCN(CC)CCCN(c1ccccc1)C1Cc2ccccc2C1 | inconclusive: 15.8 µM [cytotoxic, partial curve] and inconclusive: 14.1 µM [cytotoxic, partial curve] | – |
| Cc1cc2nc3c(=O)[nH]c(=O)nc-3n(C[C@H](O)[C@H](O)[C@H](O)CO)c2cc1C | – | inactive: 11.4% |
| O=[N+]([O-])c1ccc(O)c2ncccc12 | active: 7.94 µM | – |
| CC(C)(Sc1cc(C(C)(C)C)c(O)c(C(C)(C)C)c1)Sc1cc(C(C)(C)C)c(O)c(C(C)(C)C)c1 | inconclusive: 0.0501 µM [rising, full curve, poor fit] | – |

system: not listed separately; assay: Primary qHTS for small molecule stabilizers of the endoplasmic reticulum resident proteome: Secreted ER Calcium Modulated Protein (SERCaMP) assay (AID 1508630); conditions: SH-SY5Y GLuc-SERCaMP (Gaussia luciferase released on ER calcium loss) secretion, thapsigargin, luminescence; activity change, negative = inhibition: at 38.4 µM (top of the series); for activity change, negative = inhibition: % is set by controls: 0 for no effect and ±100 for the full control effect
In short: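 The SH-SY5Y reporter protocol was run at 3 concentrations up to 38.3 uM (primary) or 11 concentrations (follow-up): 16 h compound, 100 nM thapsigargin for 4 h, then extracellular luciferase luminescence.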

| SMILES | activity change, negative = inhibition | Potency |
| --- | --- | --- |
| Nc1ccc2cc3ccc(N)cc3nc2c1 | inactive: 297% | – |
| Cc1cc2nc3c(=O)[nH]c(=O)nc-3n(C[C@H](O)[C@H](O)[C@H](O)CO)c2cc1C | – | inconclusive: 6.31 µM [inhibitor, partial curve, poor fit] |
| NC(=O)c1ncn([C@@H]2O[C@H](CO)[C@@H](O)[C@H]2O)c1O | – | inconclusive: 10 µM [inhibitor, partial curve, poor fit] |
| Oc1c(I)cc(Cl)c2cccnc12 | – | inconclusive: 28.2 µM [inhibitor, partial curve, poor fit] |
| Cc1ncc(CSSCc2cnc(C)c(O)c2CO)c(CO)c1O | inactive: -25.8% | – |
| O=[N+]([O-])c1ccc(O)c2ncccc12 | – | active: 1 µM |
| Cc1c(C)c2c(c(C)c1O)CCC(C)(COc1ccc(CC3SC(=O)NC3=O)cc1)O2 (stereo unspecified) | – | inactive |
| O=C(O)CCNc1cc(N2CCc3ccccc3CC2)nc(-c2ccccn2)n1 | – | inconclusive: 11.9 µM [inhibitor, partial curve, poor fit] |
| O=S1(=O)OC(c2ccc(O)cc2)(c2ccc(O)cc2)c2ccccc21 | – | inconclusive: 28.2 µM [inhibitor, single point] |
| NC(=NCCCCCCN=C(N)/N=C(\N)Nc1ccc(Cl)cc1)/N=C(\N)Nc1ccc(Cl)cc1 | inactive: 66.7% | – |
| NC[C@H](O)c1ccc(O)c(O)c1 | – | inconclusive: 2.24 µM [inhibitor, full curve, poor fit] |
| Cc1ccc(O)c2ncccc12 | – | inconclusive: 31.6 µM [inhibitor, partial curve, poor fit] |
| CC[C@@]1(O)C(=O)OCc2c1cc1n(c2=O)Cc2cc3c(CN(C)C)c(O)ccc3nc2-1 | – | inactive |
| COc1ccc(NS(=O)(=O)c2ccc(N)cc2)nn1 | – | inconclusive: 2.24 µM [inhibitor, full curve, poor fit] |
| CO[C@@]12[C@H](COC(N)=O)C3=C(C(=O)C(C)=C(N)C3=O)N1C[C@@H]1N[C@@H]12 | – | inactive |
